Results on 40 sequences are retold here after article PMC6451091.

Some of the results follow. The protein was read in a cell extract, so binding may be indirect.

This experiment has as its target T1, FLI1 (endogenous, THP-1 nuclear extract) (UniProt Q01543).
T1 sequence: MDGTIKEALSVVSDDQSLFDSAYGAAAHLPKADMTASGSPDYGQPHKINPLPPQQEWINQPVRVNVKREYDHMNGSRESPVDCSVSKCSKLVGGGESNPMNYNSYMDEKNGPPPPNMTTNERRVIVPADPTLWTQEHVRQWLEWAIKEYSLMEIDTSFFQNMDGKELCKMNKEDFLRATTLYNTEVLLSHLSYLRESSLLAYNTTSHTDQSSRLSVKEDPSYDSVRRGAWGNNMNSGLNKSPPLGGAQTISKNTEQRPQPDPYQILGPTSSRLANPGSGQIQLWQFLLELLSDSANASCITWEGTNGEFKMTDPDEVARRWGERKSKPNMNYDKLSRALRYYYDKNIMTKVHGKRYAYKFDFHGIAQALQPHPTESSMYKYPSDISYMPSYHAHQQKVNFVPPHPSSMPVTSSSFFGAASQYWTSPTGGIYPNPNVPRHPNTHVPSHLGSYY
Briefly: nuclear extract protein-binding microarray (nextPBM). As to conditions: 20 mM HEPES pH 7.9, 100 mM NaCl, 1 mM DTT, 0.2 mg/mL BSA, 0.02% Triton X-100, 2% milk, 0.4 mg/mL salmon testes DNA; 1 h; temperature not stated; high values mean tight binding; double strand, one strand shown; sequences stand for … in GCCTAGCAC…GTGCTAGGTCTTGATTCGCTTGACGCTGCTG
Sequence ACAAAAAGGAACCGTGCCCC came in with a binding signal of 0.7 z-score.
With TAAATGAGGAAATGGGAGCT the figure was 1.98 z-score; with GAAAACATGAAGTCCCATAG, 0.0829 z-score.
Under AGGAAGGGGAAGTGGTTCGT stands 3.22 z-score; under CAAAAGGGGAAGTGCTAAAC, 3.29 z-score; under TGTATAAGGAAGTGGGAGCC, 2.12 z-score.
With GGAAAGAGGAAGTGCAACCA the figure was 4.54 z-score; with AGAAGAGGGAAGTGGAGGTT, 1.81 z-score.
Consider TGATTGAGGAAGTGGCTGGG, for which the binding signal is 3 z-score.
With AGCAGGAGGAAGTGGGTGGA the figure was 2.69 z-score; with ACAAAAAGGAACTCTGCCCC, 0.674 z-score.
Take TGAAAGGGGAAGTGCTAAAC: the binding signal was 3.01 z-score.
With TAAAACAGGAAGTGGTGTTC, the binding signal amounted to 5.45 z-score.
With CGAAAGGGGAAGTTCTAAAC the figure was 3.01 z-score; with GAAAAGAGGAAGTCACATTG, 4.21 z-score.
Under TGAAAGAGGAAGTGCAAACA stands 3.91 z-score; under AAAAAAAGGAACTTGCTAGA, 1.73 z-score; under GGAAAAGGGAAGTGCTCTGA, 3.24 z-score.
Under AAAAAGAGGAAGTCGTTTTC stands 4.46 z-score; under CGAAAGGGGAAGTGCTAAAA, 3.48 z-score.
The sequence GATAAGAGGAGGTCCTCTGT displayed a binding signal of 0.0833 z-score.
With GATAATAGGAAGTCCTCTGT the figure was 1.9 z-score; with AGCAGGAGGAAGTGAAGCTA, 2.4 z-score; with AAAAAAAGGAAATACTGTGA, 1.63 z-score.
ACAAAAAGGAAATGTGCCCC gave a binding signal of 1.68 z-score.
With GATAAGAGGATGTCCTCTGT the figure was 1.17 z-score.
Under AGAAAAAGGAACTGGCTAGA stands 1.35 z-score; under GATTTGAGGAAATGGAACTT, 2.09 z-score; under CCTAAAGGGAAGTGTAAATA, 1.67 z-score.
Regarding GAGAAAGGGAAGTGGCTCAG, the binding signal came out at 2.29 z-score.
Under GCTAGGAGGAAGTGACTGCA stands 2.51 z-score; under CAAAAGAGGAAGTCAATACA, 3.79 z-score; under GAAAACAGGAAGTCCCATTG, 4.69 z-score.
With TTTAAGAGGAAATGATTCTA the figure was 2.36 z-score; with TGAAAGAGGAAGTGGATAGG, 4.14 z-score.
Take GAGGGGAGGAACTGGCAGTG: the binding signal came out at 0.57 z-score.
AAATACAGGAAGTCCAACAT: the binding signal is 3.93 z-score.
With CTATTGAGGAACTGCCTCTG the figure was 0.785 z-score.
Under AAAAAGAGGAAGTCAAATTA stands 4.13 z-score.
Under TTAAAGGGGAAGTGGACAAA stands 2.47 z-score.
